From the antibiotic and cytotoxicity screens of Wong et al. (2023)
The other results are listed elsewhere or left out.

Experiments:
HSkMC = human skeletal muscle cells; test: cytotoxicity call (relative viability < 0.9); details: 10 µM
HepG2 = test: cytotoxicity call (relative viability < 0.9); details: 10 µM
S. aureus RN4220 = test: growth inhibition call (relative growth <= 0.2); details: 50 µM

COc1ccc2c3c(n(c2c1)C)[C@H](CO)N(Cc1cc(cc(c1)OC)OC)C[C@]13CCN(CC1)S(=O)(=O)c1cn(cn1)C
inactive: cytotoxicity call (HSkMC) | cytotoxicity call (HepG2) | growth inhibition call (S. aureus RN4220)

C[C@H]1CN([C@@H](C)CO)C(=O)c2cc(C#Cc3ccccc3F)cnc2O[C@H]1CN(C)C(=O)Cc1ccncc1
inactive: cytotoxicity call (HSkMC) | cytotoxicity call (HepG2) | growth inhibition call (S. aureus RN4220)

CC(C)NC(=O)N(C)C[C@H]1OCc2cn(nn2)CCCC(=O)N([C@H](C)CO)C[C@H]1C
inactive: cytotoxicity call (HSkMC) | cytotoxicity call (HepG2) | growth inhibition call (S. aureus RN4220)

C[C@H](CO)N1C[C@H](C)[C@@H](CN(C)Cc2ccccc2)Oc2cc(C#Cc3ccccn3)ccc2S1(=O)=O
inactive: cytotoxicity call (HSkMC) | cytotoxicity call (HepG2) | growth inhibition call (S. aureus RN4220)

COCC(=O)N1C[C@H](C)[C@@H](OC)CN(C)C(=O)c2ccc(NC(=O)c3cc(C)on3)cc2OC[C@@H]1C
inactive: cytotoxicity call (HSkMC) | cytotoxicity call (HepG2) | growth inhibition call (S. aureus RN4220)

C[C@H](CO)N1C[C@H](C)[C@H](CN(C)C(=O)Cc2ccccc2)OCCCC[C@H](C)Oc2ccc(NC(=O)NC3CCCCC3)cc2C1=O
inactive: cytotoxicity call (HSkMC) | cytotoxicity call (HepG2) | growth inhibition call (S. aureus RN4220)

N[C@@H](C(=O)O)c1ccc(C(=O)O)c(C(=O)O)c1
inactive: cytotoxicity call (HSkMC) | cytotoxicity call (HepG2) | growth inhibition call (S. aureus RN4220)

C[C@@H]1CCCCO[C@H](CN(C)C(=O)Nc2ccc(C(F)(F)F)cc2)[C@H](C)CN([C@@H](C)CO)C(=O)c2cc(NC(=O)NC3CCCCC3)ccc2O1
inactive: cytotoxicity call (HSkMC) | cytotoxicity call (HepG2) | growth inhibition call (S. aureus RN4220)

CO[C@@H]1CN(C)C(=O)c2ccc(NC(=O)C3CC3)cc2OC[C@H](C)N(C(=O)CN2CCOCC2)C[C@@H]1C
inactive: cytotoxicity call (HSkMC) | cytotoxicity call (HepG2) | growth inhibition call (S. aureus RN4220)

C[C@@H]1CN([C@H](C)CO)C(=O)Cc2cc(NS(=O)(=O)c3cccs3)ccc2O[C@H]1CN(C)CC1CC1
inactive: cytotoxicity call (HSkMC) | cytotoxicity call (HepG2) | growth inhibition call (S. aureus RN4220)
